These results are taken from US9533055 (ARMAGEN TECHNOLOGIES, dated 2017).

The target in the experiment is T1, human TNFα (human, UniProt P01375 partial chain).
T1 construct: Bought; also called tumor necrosis factor-α
The experiment in a line: ELISA, plated human TNFα, linear regression of binding curve. The procedure:
Binding of the HIRMAb-TNFR fusion protein to TNFα was determined with an ELISA. The capture reagent was commercially available human TNFα. The positive control in the assay was commercially available recombinant human TNFR-II:human IgG1 Fc fusion protein, designated TNFR: Fc, and the negative control was human IgG1/κ. The TNFα was dissolved in 0.1 M NaHCO3/pH=9.0 and plated overnight at 4 C in 100 μl/well (0.2 μg/well). After washing with 0.01 M Tris/0.15 M NaCl/pH=7.4 (TBS), the wells were blocked with 1% bovine serum albumin (BSA) in TBS for 30 min. A volume of 100 μl/well of HIRMAb-TNFR, TNFR:Fc, or human IgG1k was plated for 60 min at room temperature. After washing with TBS plus 0.05% Tween-20 (TBST), a goat anti-human IgG-alkaline phosphatase conjugate was incubated (0.2 μg/well) for 60 min. Following washing with TBST, color detection at 405 nm was performed with an ELISA plate reader after color development with para-nitrophenylphosphate and termination of the reaction with 1.2 M NaOH. […] Therefore, the data were fit to a linear regression analysis to compute the slope of the binding curve. The reciprocal of the slope is equal to the KD/Amax ratio, where KD is the binding constant of TNFR binding to the plated TNFα, and Amax is the maximum absorbance. […] The affinity of either recombinant TNFR:Fc or the HIRMAb-TNFR fusion protein for human TNFα was measured with an ELISA.

B1: HIRMAb-TNFR fusion protein (other)
heavy: QVQLQQSGPELVKPGALVKISCKASGYTFTNYDIHWVKQRPGQGLEWIGWIYPGDGSTKYNEKFKGKATLTADKSSSTAYMHLSSLTSEKSAVYFCAREWAYWGQGTLVTVSA[in this place human IgG1 constant region]SSLPAQVAFTPYAPEPGSTCRLREYYDQTAQMCCSKCSPGQHAKVFCTKTSDTVCDSCEDSTYTQLWNWVPECLSCGSRCSSDQVETQACTREQNRICTCRPGWYCALSKQEGCRLCAPLRKCRPGFGVARPGTETSDVVCKPCAPGTFSNTTSSTDICRPHQICNVVAIPGNASRDAVCTSTSPTRSMAPGAVHLPQPVSTRSQHTQPTPKPSTAPSTSFLLPMGPSPPAEGSTGD
light: DIQMTQSPSSLSASLGERVSLTCRASQDIGGNLYWLQQGPDGTIKRLIYATSSLDSGVPKRFSGSRSGSDYSLTISSLESEDFVDYYCLQYSSSPWTFGGGTKMEIKRTVAAPSVFIFPPSDEQLKSGTASVVCLLNNFYPREAKVQWKVDNALQSGNSQESVTEQDSKDSTYSLSSTLTLSKADYEKHKVYACEVTHQGLSSPVTKSFNRGEC
notes: IgG-decoy receptor fusion: TNFR-II ECD fused to the carboxyl terminus of each heavy chain of the chimeric HIRMAb; also called fusion protein of HIRMAb and TNFR ECD; HIRMAb-TNF-decoy receptor fusion protein
For the molecule B1, the KD/Amax ratio turned out to be 1.4 nM.
